In publication PMC3526275:
No constants are given. Whether binding was seen depends on the method and setting. For part of these data: In cells and extracts the contact can be indirect. Some entries that bind do so weakly or less than the wild type. For part of these data: Sequences can lack the tags named with a protein.

Protein sequences, listed by entry. Tags and fused reporters are not part of them. Lines headed by an entry give the natural chain unless they say otherwise; changes in a name come on top. Residues count along the entry.
UniProt Q86YI8: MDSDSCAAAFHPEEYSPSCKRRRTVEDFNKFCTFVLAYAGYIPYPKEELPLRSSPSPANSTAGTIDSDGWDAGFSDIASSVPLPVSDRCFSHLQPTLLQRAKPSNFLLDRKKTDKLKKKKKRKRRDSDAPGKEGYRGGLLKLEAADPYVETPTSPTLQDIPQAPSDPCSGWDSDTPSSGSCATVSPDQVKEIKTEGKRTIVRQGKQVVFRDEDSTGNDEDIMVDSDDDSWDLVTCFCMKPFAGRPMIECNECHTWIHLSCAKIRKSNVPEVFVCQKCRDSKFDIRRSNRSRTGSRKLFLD
ProtA-SPOC1 (amino acids 150–300): residues 150-300 of Q86YI8
UniProt Q5DW34: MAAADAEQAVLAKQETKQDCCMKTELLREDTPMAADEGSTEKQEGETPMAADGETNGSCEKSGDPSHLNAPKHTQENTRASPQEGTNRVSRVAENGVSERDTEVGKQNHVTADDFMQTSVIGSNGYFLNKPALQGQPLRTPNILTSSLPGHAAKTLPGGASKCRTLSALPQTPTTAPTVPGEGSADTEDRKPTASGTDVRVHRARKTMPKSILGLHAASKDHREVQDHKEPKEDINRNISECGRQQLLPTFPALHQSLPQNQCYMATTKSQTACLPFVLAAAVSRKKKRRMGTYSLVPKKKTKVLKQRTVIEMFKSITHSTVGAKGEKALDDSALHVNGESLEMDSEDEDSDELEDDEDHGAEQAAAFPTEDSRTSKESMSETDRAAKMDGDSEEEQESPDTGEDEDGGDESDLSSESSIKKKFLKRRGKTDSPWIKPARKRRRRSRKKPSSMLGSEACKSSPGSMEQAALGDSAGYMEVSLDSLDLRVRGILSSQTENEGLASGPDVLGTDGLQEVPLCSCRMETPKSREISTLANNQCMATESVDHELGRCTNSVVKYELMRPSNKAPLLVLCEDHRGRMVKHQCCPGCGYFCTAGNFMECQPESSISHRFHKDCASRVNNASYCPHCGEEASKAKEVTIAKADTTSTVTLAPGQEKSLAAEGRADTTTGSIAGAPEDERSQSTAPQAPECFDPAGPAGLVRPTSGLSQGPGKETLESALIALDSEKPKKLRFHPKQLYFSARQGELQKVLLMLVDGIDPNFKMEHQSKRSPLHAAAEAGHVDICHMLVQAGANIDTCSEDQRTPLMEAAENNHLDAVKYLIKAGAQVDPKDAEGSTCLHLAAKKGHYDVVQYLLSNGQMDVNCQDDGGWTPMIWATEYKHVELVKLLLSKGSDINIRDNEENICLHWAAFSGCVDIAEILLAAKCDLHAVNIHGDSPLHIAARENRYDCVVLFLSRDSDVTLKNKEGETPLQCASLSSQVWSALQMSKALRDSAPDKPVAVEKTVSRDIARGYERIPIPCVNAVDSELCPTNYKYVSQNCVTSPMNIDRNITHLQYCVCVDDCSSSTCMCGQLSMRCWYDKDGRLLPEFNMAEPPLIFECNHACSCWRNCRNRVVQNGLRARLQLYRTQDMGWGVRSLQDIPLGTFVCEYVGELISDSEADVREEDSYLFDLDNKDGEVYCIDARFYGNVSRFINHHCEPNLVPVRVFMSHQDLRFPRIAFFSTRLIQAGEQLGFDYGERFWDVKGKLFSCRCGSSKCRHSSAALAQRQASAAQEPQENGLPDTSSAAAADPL

Experiments:
[1] = biological target: ProtA-SPOC1 (amino acids 1–300) (human) (UniProt Q86YI8); test: LUMIER (luciferase co-precipitation); protein A and renilla luciferase fusion proteins coexpressed in HEK293 cells; protein A fusions captured on IgG-coated magnetic beads; copurified luciferase activity as Z-score, Z-score ≥ 0.5 indicates an interaction
[2] = biological target: ProtA-SPOC1 (amino acids 150–300) (human) (UniProt Q86YI8); test: as above
[3] = biological target: GLP (endogenous, C2C12) (mouse (endogenous in C2C12)) (UniProt Q5DW34); test: co-IP; immunoprecipitation of endogenous GLP or SUV39H1 from C2C12 cell extracts, control antibody alongside; immunoblot for GLP, SUV39H1, SETDB1 and SPOC1

Binder	binding [1]	binding [2]	binding [3]
Luc-KAP-1 (amino acids 601–835) (domain or fragment, UniProt Q13263 601-835) SGLEVVAPEGTSAPGGGPGTLDDSATICRVCQKPGDLVMCNQCEFCFHLDCHLPALQDVPGEEWSCSLCHVLPDLKEEDGSLSLDGADSTGVVAKLSPANQRKCERVLLALFCHEPCRPLHQLATDSTFSLDQPGGTLDLTLIRARLQEKLSPPYSSPQEFAQDVGRMFKQFNKLTEDKADVQSIIGLQRFFETRMNEAFGDTKFSAVLVEPPPMSLPGAGLSSQELSGGPGDGP	no binding	no binding	–
Luc-KAP-1 (amino acids 1–400) (domain or fragment, UniProt Q13263 1-400) MAASAAAASAAAASAASGSPGPGEGSAGGEKRSTAPSAAASASASAAASSPAGGGAEALELLEHCGVCRERLRPEREPRLLPCLHSACSACLGPAAPAAANSSGDGGAAGDGTVVDCPVCKQQCFSKDIVENYFMRDSGSKAATDAQDANQCCTSCEDNAPATSYCVECSEPLCETCVEAHQRVKYTKDHTVRSTGPAKSRDGERTVYCNVHKHEPLVLFCESCDTLTCRDCQLNAHKDHQYQFLEDAVRNQRKLLASLVKRLGDKHATLQKSTKEVRSSIRQVSDVQKRVQVDVKMAILQIMKELNKRGRVLVNDAQKVTEGQQERLERQHWTMTKIQKHQEHILRFASWALESDNNTALLLSKKLIYFQLHRALKMIVDPVEPHGEMKFQWDLNAWTK	–	binds	–

Second part, the binder after the results:

binding [1]	binding [2]	binding [3]	Binder
no binding	no binding	–	Luc-KAP-1 (amino acids 401–600) (domain or fragment, UniProt Q13263 401-600) SAEAFGKIVAERPGTNSTGPAPMAPPRAPGPLSKQGSGSSQPMEVQEGYGFGSGDDPYSSAEPHVSGVKRSRSGEGEVSGLMRKVPRVSLERLDLDLTADSQPPVFKVFPGSTTEDYNLIVIERGAAAAATGQPGTAPAGTPGAPPLAGMAIVKEEETEAAIGAPPTATEGPETKPVLMALAEGPGAEGPRLASPSGSTS
–	–	binds	SUV39H1 (endogenous, C2C12) (enzyme, UniProt O54864 1-412) MAENLKGCSVCCKSSWNQLQDLCRLAKLSCPALGVSKKNLYDFEVEYLCDYKKIREQEYYLVKWRGYPDSENTWEPRQNLKCIRVLKQFHKDLERELVRRHRRSKPPRHLDPNLANYLVQKAKQRRALQRWEQELNAKRSHLGRITVENEVDLDGPPRSFVYINEYRVGEGITLNQVAVGCECQDCLLAPTGGCCPGASLHKFAYNDQGQVRLKAGQPIYECNSRCCCGYDCPNRVVQKGIRYDLCIFRTNDGRGWGVRTLEKIRKNSFVMEYVGEIITSEEAERRGQIYDRQGATYLFDLDYVEDVYTVDAAYYGNISHFVNHSCDPNLQVYNVFIDNLDERLPRIAFFATRTIWAGEELTFDYNMQVDPVDMESTRMDSNFGLAGLPGSPKKRVRIECKCGTTACRKYLF
